Reference: article PMC12040169 (PLOS Biology, 2025)
The list shows a part of the results.

system: T1, C. trachomatis L2/434/Bu expressing GFP (CTL2-GFP); parameters: species or system HeLa; C. trachomatis total inclusion area by high-content imaging, normalised to DMSO; conditions: total inclusion area; 28.5 h, 10 µM; inhibitor
T1 construct: L2/434/Bu GFP intracellular growth in HeLa cells
Method in brief: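 Bulk GFP and resorufin signals were read first. Wells were then fixed, stained with Hoechst and imaged to detect GFP inclusions and host nuclei. MICs followed the previously described calculation.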

SMILES	% of control remaining
O=C(C/C=N/OCc1ccccc1)c1sccc1Cl [CBK021611]	69.0299
Cc1nnc(NC(=O)c2ccc3c(c2)OCO3)s1 [CBK287358]	94.4757
Cc1ccc(-n2c(SCC(=O)c3ccc4c(c3)OCO4)nnc2-c2ccncc2)cc1 [CBK266132]	161.662
O=C(Nc1nc(-c2ccccc2)cs1)c1ccc(N2C(=O)CCC2=O)cc1 [CBK287333]	116.049
COc1ccc(Cl)cc1NC(=O)CN(c1cc(C(F)(F)F)ccc1Cl)S(C)(=O)=O [CBK264724]	106.386
O=c1[nH]c2cc(NCCO)c([N+](=O)[O-])cc2[nH]1 [CBK009794]	71.7885
CN(C)c1ccc(-c2cn3ccnc3c(NC3CC3)n2)cc1 [CBK037894]	92.1206
Cc1cc(C)[n+](-c2nccs2)c(C)c1 [CBK008782G]	62.7488
Cc1cccc(NC(=O)COc2ccccc2CNc2ccc(Br)cc2)c1 [CBK266534]	103.846
CN(C)CCN(C)C(=O)c1ccc(-c2cc3ccccc3o2)nc1NCc1cccnc1 [CBK076160]	86.1895
CCN1C(=O)/C(=C/c2cc(Br)ccc2OCc2cccc([N+](=O)[O-])c2)NC1=S [CBK265138]	106.334
CCCCCCC(C)n1c(-c2nonc2N)nc2ccccc21 (stereo not shown) [CBK062648]	95.4112
COc1ccc(-c2nnc([C@H]3CCN(Cc4cccc(C#N)c4)C3)o2)cc1 [CBK289400]	87.8886
CC(C#N)(NC(=O)COc1ncnc2sc3c(c12)CCC3)C1CC1 (stereo not shown) [CBK306333]	33.0117
Cc1cnc(CN2CCNC(=O)C2c2ccccc2C(F)(F)F)o1 (stereo not shown) [CBK306431]	63.6867
Cc1cc(C)cc(OCc2nnc(SCC(=O)N3CCN(c4ccccc4)CC3)o2)c1 [CBK268012]	102.431
Cc1cc(COc2nccnc2N2CCCC2)no1 [CBK115755]	54.6685
O=C(Oc1cccc(-c2cnc3ccccc3n2)c1)c1cccc(S(=O)(=O)N2CCOCC2)c1 [CBK262096]	79.8371
COc1ccccc1CC(=O)N1CCCC(c2cc3ncccc3[nH]2)C1 (stereo not shown) [CBK283417]	100.972
O/N=C/Nc1nccc(-c2cc(Cl)sc2Cl)n1 [CBK005934]	44.7774
COc1cc(OC)cc(C(=O)N2CCC3(CC2)CC(=O)c2cc(C)ccc2O3)c1 [CBK167804]	89.1595
Nc1ccc(-c2cn3ccnc3c(NCc3cccs3)n2)cc1 [CBK066564]	139.792
CC(NC(=O)c1c2c(nn1C)CCCC2)c1ccccn1 (stereo not shown) [CBK281888]	88.558
O=C(O)c1ccccc1NS(=O)(=O)c1cccc2cccnc12 [CBK042358]	84.7036
O=C1C(n2c(=O)[nH]c3ccccc3c2=O)CCN1CC(F)(F)F (stereo not shown) [CBK305264]	30.0735
COCCN(Cc1nnc(-c2cccs2)o1)C(C(=O)N1CCOCC1)c1ccccc1 (stereo not shown) [CBK295190]	105.516
Cc1ccc(N(CCc2cc(C(F)(F)F)cc(C(F)(F)F)c2)C(=O)CN)cc1NC(=O)CN(C)C [CBK003630T]	56.2152

SMILES	% of control remaining
Cc1ccc(OCC(=O)Nc2ccccc2N2CCN(S(C)(=O)=O)CC2)cc1 [CBK268722]	78.7756
Cc1cc(CC(=O)NCc2c(-c3ccccc3)noc2C)on1 [CBK144090]	95.136
Cc1ccc2nc(C)cc(C(=O)NNC(=O)Nc3ccc([N+](=O)[O-])cc3)c2c1 [CBK266890]	113.545
Cn1cc(-c2cncn2CCCOc2ccc(Cl)cc2)cn1 [CBK281784]	124.83
COc1ccccc1C1=NN(C(=O)CCCC(=O)O)C(c2ccco2)C1 (stereo not shown) [CBK266642]	94.8359
CS(=O)(=O)c1ccc(-c2cccc(COC3CCN(C(=O)Cc4ccc(F)cc4F)CC3)c2)cc1 [CBK149506]	74.126
O=C(/C=C/c1ccco1)Nc1cc2ccccc2cc1NC(=O)/C=C/c1ccco1 [CBK261474]	100.731
O=C(Cn1c(-c2ccc(F)cc2)cc2cccnc21)N1CCOCC1 [CBK285383]	67.0574
Cc1nc(C)n(CCNC(=O)C(C)Cc2cccs2)n1 (stereo not shown) [CBK282067]	98.9121
Cc1ccc(C(=O)N(C)Cc2cc(-c3ccncc3)no2)c(=O)n1C [CBK307324]	49.3508
CCN(CC(=O)Nc1ccccc1OC)S(=O)(=O)c1ccccc1 [CBK269428]	122.495
COc1ccc(NS(=O)(=O)c2ccc(Cl)cc2Cl)c(C(=O)NCc2ccccc2)c1 [CBK113943]	78.2436
Fc1ccc(OCCCCCN2CCC3(CC2)OCCc2c3[nH]c3ccccc23)cc1 [CBK113516T]	0.1153
CN(CC(=O)O)c1ccccc1C(=O)O [CBK260996]	99.0708
COc1cc(C=CC(=O)N(C)c2ccccc2C(=O)O)cc(OC)c1OC [CBK296136]	96.2152
Cc1cc(C)c2oc(-c3ccc(C)c(NC(=O)COc4ccccc4C)c3)nc2c1 [CBK263067]	90.1829
CC(C)S(=O)(=O)n1c(=O)n(CC(=O)c2csc3ccccc23)c2ccccc21 [CBK106559]	67.3124
OCc1nnc2c3ccccc3c(-c3ccccc3)nn12 [CBK269927]	77.1289
O=C(CSCc1ccc(Cl)cc1Cl)Nc1ccc(Oc2ccc3c(c2)C(=O)NC3=O)cc1 [CBK266779]	113.883
COc1ccc(CCN2C(=O)c3[nH]nc(-c4cc(C)c(C)cc4O)c3C2c2ccccc2)cc1 (stereo not shown) [CBK269154]	86.129
Cc1n[nH]c(C)c1CC(=O)NC(Cc1cccs1)c1ccccn1 (stereo not shown) [CBK285208]	63.0198
CCC(Sc1nc(C)cc(C)n1)C(=O)Nc1ccc(NC(C)=O)cc1 (stereo not shown) [CBK269804]	91.407
COCCNS(=O)(=O)c1cccc2c1CN(C(=O)c1ccccc1)CC2 [CBK306539]	44.5663
c1ccc(Oc2cccc(C(N3CCOCC3)N3CCOCC3)c2)cc1 [CBK261798]	84.9858
CC(C)c1ccc(N2C(=O)SC(c3ccccc3)C2=O)cc1 (stereo not shown) [CBK113687]	85.8205
O=C1CNC(=O)C2(C/C=C/C[C@H]3COCC[C@H]3N1)CCN(C(=O)C1CCOCC1)CC2 [CBK292143]	113.286
CCOc1ccc(CNCc2ccc(C(=O)O)cc2)cc1OC [CBK269590C]	85.3126

SMILES	% of control remaining
CC(C)CCN(C)C(=O)c1cccc(S(=O)(=O)NCc2ccsc2)c1 [CBK307656]	100.665
CC(C)c1ccc(/C=C/C(=O)NC(=S)Nc2cccc(C(=O)O)c2)cc1 [CBK265024]	131.786
FC(F)(F)c1cccc(CSc2nc3ccccc3nc2N2CCCC2)c1 [CBK107190]	89.2501
N=C(N)NCCc1c[nH]c2ccccc12 [CBK024011G]	2.825
O=C(CSc1nc(O)cc(=O)n1-c1ccccc1)c1ccccc1 [CBK261745]	89.6116
NC(=O)c1ccccc1NC(=O)Cc1ccc2c(c1)CCCC2 [CBK298334]	57.9155
CC(=O)NCCNC(=O)c1ccc(C)nc1N1CCOCC1 [CBK076453]	103.799
Cc1cccc(/N=C(\N)Nc2nc(=O)cc(C)[nH]2)c1 [CBK288144]	76.4692
OC(CNCCc1cccnc1)COc1cccc2c1CCCC2 (stereo not shown) [CBK002237]	96.9465
CCCC(=O)Nc1ccccc1NC(=O)c1ccc2c(c1)OCO2 [CBK265841]	74.6382
O=C(NCCS(=O)(=O)c1ccccc1)c1cnc(-c2ccc(Cl)cc2)c(-c2ccco2)c1 [CBK037546]	132.392
COc1ccc(CC(=O)N2CCC(Cc3cccc(-c4cccs4)c3)(C(N)=O)CC2)cc1 [CBK285744]	110.763
N=C1/C(=C/c2ccc(-c3cccc([N+](=O)[O-])c3)o2)C(=O)N=C2SC(SCc3ccccc3)=NN12 [CBK265354]	115.104
COc1ccc(C(=O)Nc2ccc3[nH]ccc3c2)cc1Cl [CBK159681]	86.2866
COc1ccccc1N1CCN(c2nccc3sc(S(=O)(=O)NC4CCC4)cc23)CC1 [CBK038248C]	114.118
Cc1ccc2[nH]c(SCc3nc(-c4cccs4)no3)nc2c1 [CBK269509]	67.6802
CCCC(=O)Nc1cc(S(=O)(=O)NC)ccc1C [CBK024770]	61.7584
CNC(=S)N(CCS(=O)(=O)c1ccc(Cl)cc1)Cc1cccs1 [CBK006431]	90.9804
O=C1Nc2ccc(Br)cc2/C1=C1/SC(=S)N(C(Cc2ccccc2)C(=O)O)C1=O (stereo not shown) [CBK263521]	96.4028
COCCOc1nnc(C)c2ccccc12 [CBK019388]	83.6361
CC(C)CCNC(=O)N1CCN(Cc2ccccc2)CC1 [CBK155657]	93.1013
COc1cccc(NC(=O)c2cc(-c3ccc(C(=O)N4CCOCC4)cc3)cnc2N)c1 [CBK160203]	90.5932
CC(=O)N1CCC2(C/C=C/C[C@H]3CN(C(=O)Cc4cccc(F)c4)CC[C@H]3NC(=O)CNC2=O)CC1 [CBK292103]	64.5723
CCCc1nc(C(=O)NC2CC(=O)N(CCc3ccc(F)cc3)C2)cs1 (stereo not shown) [CBK306548]	83.6569
CCOC(=O)c1c(-c2ccc(-c3ccccc3)cc2)csc1NC(=O)c1ccccc1C(=O)O [CBK296096]	91.0067
